Experimental data: the supplement of paper PMC3334620
In all, about 33,000 sequences were measured (“E-score (-0.5 to 0.5)”: median about -0.021, highest 2% from about 0.32 on). The list shows a part of the results.

target: T1, Zap1 (UniProt P47043); experiment: PBM E-score (8-mer binding enrichment) (E-score (-0.5 to 0.5)); higher = stronger / more preferred TF binding; most listed sequences are background and not binding sites; settings: protein concentration: 200 nM; construct: GST-full length
T1 sequence: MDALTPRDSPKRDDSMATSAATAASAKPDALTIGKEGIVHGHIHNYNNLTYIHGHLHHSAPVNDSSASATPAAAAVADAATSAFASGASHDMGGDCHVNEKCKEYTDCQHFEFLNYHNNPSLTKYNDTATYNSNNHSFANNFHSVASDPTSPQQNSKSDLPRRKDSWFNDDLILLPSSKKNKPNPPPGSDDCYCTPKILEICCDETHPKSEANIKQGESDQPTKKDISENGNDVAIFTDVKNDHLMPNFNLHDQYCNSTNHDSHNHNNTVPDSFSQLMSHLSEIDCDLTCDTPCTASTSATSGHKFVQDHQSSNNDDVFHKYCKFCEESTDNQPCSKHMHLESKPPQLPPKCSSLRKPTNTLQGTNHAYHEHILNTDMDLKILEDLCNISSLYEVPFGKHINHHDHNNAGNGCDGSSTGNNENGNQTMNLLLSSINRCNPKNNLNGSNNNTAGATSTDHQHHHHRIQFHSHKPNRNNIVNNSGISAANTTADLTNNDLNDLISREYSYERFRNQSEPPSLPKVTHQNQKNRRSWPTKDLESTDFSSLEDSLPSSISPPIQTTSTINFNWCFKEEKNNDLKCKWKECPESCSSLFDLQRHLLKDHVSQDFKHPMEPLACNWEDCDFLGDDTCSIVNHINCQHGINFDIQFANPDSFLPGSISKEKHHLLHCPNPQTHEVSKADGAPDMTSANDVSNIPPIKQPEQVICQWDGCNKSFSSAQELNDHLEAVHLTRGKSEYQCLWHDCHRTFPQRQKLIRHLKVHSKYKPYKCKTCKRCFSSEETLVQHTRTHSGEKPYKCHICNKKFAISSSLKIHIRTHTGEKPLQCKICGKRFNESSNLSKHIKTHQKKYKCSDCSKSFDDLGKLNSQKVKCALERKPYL
Procedure, shortened: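 Bound GST-tagged yeast transcription factors, applied at about 100-200 nM to double-stranded universal all-10-mer Agilent arrays, were detected with fluorescent anti-GST. Scans were normalised with masliner. A modified Wilcoxon-Mann-Whitney statistic, the E-score, was assigned to each ungapped eight-base word pooled with its reverse complement by the Universal PBM Analysis Suite.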

Row | Sequence | PBM E-score
1 | CGATAAAC | -0.102
2 | GTACCGTA | 0.276
3 | GGAAAACA | -0.0302
4 | GATTGGGC | -0.0408
5 | CTCTATCA | -0.109
6 | ACTGACCT | 0.127
7 | CAAACGTA | -0.0398
8 | AGGCTACC | 0.161
9 | CAGTACGG | -0.047
10 | ATGTTTTG | 0.0598
11 | GCTTGCCC | -0.293
12 | GCGTCAGC | -0.14
13 | CGCTATAC | -0.169
14 | AAAGCAAT | 0.18
15 | AACACAAC | 0.193
16 | AAATACCA | 0.129
17 | GAAGCTAC | -0.06
18 | TGTCCTAA | 0.153
19 | AGAGTATC | -0.0558
20 | GGATGGCA | -0.116
21 | GGCTTACA | -0.139
22 | AAGGGACA | 0.0317

Row | Sequence | PBM E-score
23 | TACGTATA | -0.0338
24 | GGGGCGAA | -0.12
25 | ACTGTGCG | -0.0601
26 | ACCTCCGA | 0.046
27 | ATTGTGTG | -0.0759
28 | ACCGGTGA | 0.0524
29 | AGGTTTTG | 0.201
30 | CCCACACG | 0.0302
31 | CACCCCCG | -0.111
32 | CCATTACG | 0.0617
33 | ATCTACCC | 0.126
34 | GCCCTCCA | -0.0877
35 | ACAACTGA | 0.0204
36 | ACAACTCT | 0.0818
37 | CATACTAG | 0.0924
38 | ATGTTGCG | -0.0348
39 | AGGTACCA | 0.347
40 | AGATCAAC | 0.103
41 | ATCTAAGC | -0.0856
42 | ATCCAACA | 0.0629
43 | CCTGTATC | 0.0072
44 | GCCGAGTA | -0.224

Row | Sequence | PBM E-score
45 | AAGGGAAA | -0.126
46 | CCGAAGCG | -0.14
47 | ACGAGGCC | -0.124
48 | AACGGGGG | -0.215
49 | ATGGTGTG | 0.00296
50 | GCTTTCAC | -0.0892
51 | ACTTCCAC | -0.0819
52 | GGGCCGGA | -0.0664
53 | GGTGCAAA | 0.101
54 | ATACCAGA | 0.187
55 | ACCAGACG | 0.0138
56 | GTTAAAGA | 0.107
57 | AATCAGGC | -0.193
58 | ACCCTCCT | 0.189
59 | GATTGAGC | -0.0519
60 | CAGTAGCA | -0.278
61 | ACGTACGA | -0.267
62 | CAGCCGTA | -0.0354
63 | ATGGCGAG | -0.134
64 | AGCCCGTG | -0.306
65 | CACGATGA | 0.00522
66 | AGTATGGA | 0.062

Row | Sequence | PBM E-score
67 | ACGTGTCC | -0.277
68 | CTAGCTGA | -0.0712
69 | TGCGGGAA | -0.0562
70 | AGTTATCC | 0.0893
71 | GCTCAACC | 0.0304
72 | GAAATTGA | -0.083
73 | AAGAGAAA | -0.215
74 | AGTAAGAA | 0.125
75 | GCATTCTA | -0.0447
76 | AAAGCACG | -0.198
77 | CGAAAGGA | 0.0646
78 | CACCCCCA | -0.101
79 | AAGACCTG | -0.0707
80 | AAAGCGAG | 0.0285
81 | CCAAACAC | 0.0562
82 | GCGTGGGA | -0.0491
83 | AATACCAG | 0.15
84 | AACCGCTG | 0.176
85 | CGCACATC | -0.183
86 | CTCTCGTC | -0.163
87 | ATATCGTG | -0.0368
88 | AATGGCCG | -0.0971

Row | Sequence | PBM E-score
89 | AAGGAACA | 0.17
90 | GAAGTGCC | -0.159
91 | GGGATTAC | -0.0005
92 | GTCATCCA | 0.0621
93 | ATTCGGCC | -0.132
94 | TATGCATA | -0.009
95 | TGGTTAAA | 0.379
96 | CTCAGAGA | -0.119
97 | CATTTAGA | 0.0369
98 | ACTTTCCA | 0.047
99 | GTGAATAA | 0.153
100 | ATGCTTTG | -0.137
101 | CGTAAAAA | 0.031
102 | AGACACAA | 0.136
103 | AGGACCCT | 0.226
104 | ATAATTAT | 0.19
105 | CCTCTACC | 0.108
106 | ACCTTTCT | 0.372
107 | CTTGTGCC | -0.0484
108 | ATAAATGC | 0.0394
109 | ACAGAGGG | -0.0722
